We go through 20 sequences from the supplement of paper PMC10338343.

± gives the standard deviation. This is a selection; strong and weak results do not stand in their true shares.

The test system of this experiment is MIWI (PIWIL1) piRISC loaded with L1MC piRNA (30 nt). As to the kind of experiment: pre-steady-state target cleavage rate (min^-1); MIWI and MILI are mouse PIWI proteins and EfPiwi is from a freshwater sponge; tags in brackets are library labels; higher = faster piRNA-guided slicing of the target. The conditions noted are these: guide: L1MC piRNA 5'p-UAACUAAAUACUAUGCAAGCUGUAGGUCCU
Put shortly:
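Active affinity-purified piRISC carrying one synthetic guide (1 nM) was mixed with a transcribed, DNA-blocked target RNA library […] in HEPES–potassium acetate buffer at 33 °C for 0–8 or 0–960 min, with or without 500 nM GTSF1 partner protein. Uncleaved targets were then sequenced and normalised to depth and to weakly complementary targets. Three trials were pooled, and k3 was capped at 0.0001 min^-1. A burst-and-steady-state fit was applied to obtain the pre-steady-state cleavage rate.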

Setting [1] is: auxiliary factor: 500 nM mouse GTSF1.
The mark [2] stands for this setting: auxiliary factor: none (no GTSF1).
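Note: 1 nM active piRISC with 0.1 nM target library at 33 °C single turnover.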

On to UCCUGGAUCGGCUUGCAUAGUAUUUAGUUA, for which the “pre-steady-state target cleavage rate” value under setting [1] turned out to be 1.04 ± 0.072 and the “pre-steady-state target cleavage rate” value under setting [2] worked out at 0.0337 ± 0.0079.
For UCCUGGAUGUGCUUGCAUAGUAAUUAGAUA, the “pre-steady-state target cleavage rate” value runs as follows: under setting [1], 0.0139 ± 0.0055; under setting [2], 0.00409 ± 0.0025.
With UCCACCUACAGCUUGGUUAGUAUUUAGUUA, the “pre-steady-state target cleavage rate” value under setting [1] stood at 1.13 ± 0.053 and the “pre-steady-state target cleavage rate” value under setting [2] was found to be 0.00841 ± 0.0021.
For UCGUCCUACAGCUUGCAUAGUAUUUAGAUA the same measures were 0.43 ± 0.029 and 0.0226 ± 0.0051.
For UGGACCUACAGCUUGCAUAGUAUUUAGUGUA the same measures were 0.833 ± 0.062 and 0.0707 ± 0.015.
For UGGACCUACAGCUUGCAUUGUAUUAAGUUA the same measures were 0.575 ± 0.04 and 0.0132 ± 0.0041.
Consider AGGACCAACAGCUUGCAUAGUAAUUAGUUA, for which the “pre-steady-state target cleavage rate” value reads like this: under setting [1], 0.892 ± 0.05; under setting [2], 0.0463 ± 0.011.
Take UCCUGCUACAGCUUGCAUAGUAUUAUCUUA: the “pre-steady-state target cleavage rate” value worked out at 0.252 ± 0.041 under setting [1] and 0.00319 ± 0.0023 under setting [2].
With UCGACCUACUGCUAGCAUAGUAUUUAGUUA, the “pre-steady-state target cleavage rate” value by setting is: under setting [1], 1.25 ± 0.048; under setting [2], 0.025 ± 0.0048.
UCCACCUACAGCUUGCAUAGUAUUUAAGUUA: the “pre-steady-state target cleavage rate” value was determined as 0.736 ± 0.051 under setting [1] and 0.0371 ± 0.0075 under setting [2].
For UCCUGCUUCAGCUUGCAUAGUAUUUAGUAA, the “pre-steady-state target cleavage rate” value reads like this: under setting [1], 0.537 ± 0.036; under setting [2], 0.0275 ± 0.0068.
For UCCUGGAUGAGCUCGCAUAGUAUUUAGUUA, the “pre-steady-state target cleavage rate” value reads like this: under setting [1], 0.837 ± 0.05; under setting [2], 0.0318 ± 0.0078.
The like results for UCGAGGUACAGCUUGCAUAGUAUUUUCAAA were, in that order, 0.278 ± 0.038 and 0.00215 ± 0.0021.
Take UGCACCUACACCUUGCAUAGUAUUUAGUUA: the “pre-steady-state target cleavage rate” value was 0.967 ± 0.059 under setting [1] and 0.0415 ± 0.0067 under setting [2].
The like results for UCCUGGAACAGCUUGCAUAGUAUUUUGAAA were, in that order, 0.266 ± 0.041 and 0.00717 ± 0.0038.
With UCCUGGAUGUCCUUGCAUAGUAAUUAGUUA, the “pre-steady-state target cleavage rate” value under setting [1] worked out at 0.023 ± 0.0088 and the “pre-steady-state target cleavage rate” value under setting [2] turned out to be 0.00356 ± 0.0015.
The like results for UCCUGGAUGUCGAACGUUAGUUUAUAGUUA were, in that order, less than 0.0001 and less than 0.0001.
For UCCUCCUACAGCUGUGCAUAGUAUUUAGUUA the same measures were 1.18 ± 0.064 and 0.0204 ± 0.0047.
Regarding UCCUGGUAGAGCUUGCAUAGUAUUUAGUAA, the “pre-steady-state target cleavage rate” value under setting [1] came to 0.689 ± 0.059 and the “pre-steady-state target cleavage rate” value under setting [2] is 0.0261 ± 0.0079.
Consider UCCUGCUAGAGCUUGCAAAGUAUUUAGUUA, for which the “pre-steady-state target cleavage rate” value under setting [1] stood at 0.403 ± 0.037 and the “pre-steady-state target cleavage rate” value under setting [2] came to 0.0176 ± 0.0047.
